# Results: ChEMBL document CHEMBL4888484, “Replenishing the malaria drug discovery pipeline: Screening and hit evaluation of the MMV Hit Generation Library 1 (HGL1) against asexual blood stage Plasmodium falciparum ,using a nano luciferase reporter read-out” (2022)
# About 540 (0.36%) of roughly 150,000 compounds showed an effect of 50% or more. This is one part of the list.
# System: Plasmodium falciparum
# Experiment: Primary screen in NF54 nanoGlo assay, in single point, at 2uM, 72h; a lower Z score goes with more inhibition
# Type: functional, Erythrocyte
# Conditions: timepoint 72 hour
SMILES,% Inhibition [%],Z score
O=C(O)C1CC2CCCCC2N1Cc1cc(Cl)c2c(c1)OCCO2 (stereo not drawn),-4,0.49
Cc1ccnc(Oc2cccc(C(=O)NCc3cccnc3)c2)n1,-7,0.95
COCC(C)(NC(=O)N1C[C@H]2C[C@@H](O)CC[C@H]2C1)C(F)(F)F (stereo partly drawn),-2,0.45
Cc1cc(C(=O)NC(C)(C)[C@@H]2CCCCO2)oc1Br,-9,1.81
O=C1N(CCC2CCCCC2)CCC[C@@]1(O)CN1CCC(O)CC1,-10,1.47
CC(C)C(=O)N1CC[C@]2(C1)c1nc[nH]c1CCN2CC1CCCCC1,-10,1.77
C[C@@H](C1CC1)N(C)CC(=O)Nc1cccc(F)c1,-8,1.24
CN1CCCC2(CCN(C(=O)c3ccc4[nH]cnc4c3)CC2)[C@H]1C(=O)N1CCCC1,6,-1.19
CCC#CCN1CC[C@@]2(CCCN(CC3CCC3)C2=O)C1,-10,1.88
CC(C)(C)OC(=O)[C@@H]1CCCN1c1nc(-c2ccncc2)nc2c1CCC2,-1,0.26
O=S(=O)(c1ccccc1)[C@H]1CCN(S(=O)(=O)Cc2cccc(F)c2)C1,-14,2.35
Cc1ccc(-c2noc(CCCC(=O)N3CC[C@H](CCOc4ccc(F)cc4)C3)n2)cc1,-8,1.56
CC[C@H]1C=CCN1C(=O)CCc1ccc2c(c1)OCO2,-2,0.26
CCn1cc(-c2noc(CNC(=O)c3cc(-c4cccs4)nn3C)n2)cn1,-19,2.4
CC1COCC(C)N1C(=O)c1cc(Br)cn1C(C)C (stereo not drawn),-3,0.27
C[C@H]1Cc2cc(NC(=O)CCN3CCCC3=O)ccc2O1,-11,1.46
COc1cc2c(cc1C(=O)N1C[C@@H]3NC(=O)c4ncccc4OCCn4cc(nn4)CO[C@H]3C1)CCC2,-6,0.71
COc1ccc(Cl)c2c(=O)c3c([nH]c12)CCN(CC(=O)Nc1ccc(Cl)c(F)c1)C3,3,-0.54
Cc1nc(NCCn2nc(C)nc2C)c2ccsc2n1,1,-0.14
COc1ccc(CCNC(=O)c2csc(CN(Cc3cccc(C(F)(F)F)c3)Cc3ccccc3F)n2)cc1OC,-11,1.05
CC(C)CN1CCCN(C(=O)[C@@H]2Cc3ccccc3S(=O)(=O)N2)CC1,-2,0.25
CCn1ncc(CN2CCC3(CC2)C[C@@H](C(=O)NC2CCCC2)N(C)C3=O)c1C,-5,0.62
Cc1cnc(C(C)CNC(=O)NCCC2CCCO2)s1 (stereo not drawn),1,-0.09
O=C(c1cc(Cl)c2nc3cc(Cl)ccc3n2c1)c1ccccc1O,-2,0.29
Cc1oc2ncn(CCC(=O)NCCC(C)C)c(=O)c2c1C,-8,0.98
CC1(C)C[C@@H]1NC(=O)c1ccc2c(c1)N=S=N2,6,-0.96
CCN1CCOC[C@H]1C(=O)NCC1(CO)CC2(CCC2)C1,-1,0.2

SMILES,% Inhibition [%],Z score
CC(=O)N1CC(C(=O)NCc2ccco2)CC(c2ccc(F)c(C)c2)C1 (stereo not drawn),-12,1.73
Cc1nc(N2CCC[C@@]3(C2)NC(=O)NC3=O)c(Cl)cc1C#N,-8,1.49
CC(C)NC(=O)N1CCN2[C@H](CN(C)CC2(C)C)C1,-4,0.69
CC[C@H]1c2cc(F)c(F)cc2CCN1C(=O)Cc1c(C)n[nH]c1C,-7,0.95
CCc1ccoc1C(=O)NC[C@H]1Cc2ccccc2CN1,-1,0.1
O=C(NS(=O)(=O)N1CCc2ccccc21)c1ccsc1,1,-0.2
Cn1cnnc1-c1cncc(NCc2csc(-c3ccccn3)n2)c1,-7,0.79
COCC(=O)N[C@H]1[C@H](c2cccs2)N(C(=O)C2CCCCC2)CC[C@@]1(C)O,3,-0.39
Cc1ccc(S(=O)(=O)NCCc2csc(-n3cccn3)n2)cc1,0,-0.05
COc1cc(C2(C(=O)Nc3ncnn3C(C)C)CCC2)ccc1C,-2,0.41
COc1cccc(N2CCN(C(=O)[C@H]3CCCN(c4nccc5sc(C)cc45)C3)CC2)c1,0,-0.03
CC1(C)CCc2nnc(-c3ccoc3)n2C1,-9,1.67
CN(Cc1ccccc1)C(=O)Cc1cn(C)c2ncccc12,-7,0.76
CCN1CCCC(CNC(=O)N2CCC(OCC(C)C)C2)C1 (stereo not drawn),-6,0.88
Cc1c(C#N)nn(-c2ccccc2)c1NC(=O)CS(=O)(=O)C(C)C,-4,0.51
CCCC1C(c2ccccc2)NC(c2ccccc2)CC1(O)C#Cc1ccccc1 (stereo not drawn),-8,1.02
COc1ccc2oc(CNC(=O)N(CCN(C)C)Cc3ccsc3)nc2c1,-15,1.59
COc1ccccc1N(CN1CCCC1=O)C(=O)c1ccc(F)cc1,-3,0.56
O=C(NCCc1c[nH]c2ccccc12)c1coc(Cn2cnc3ccccc32)n1,-15,2.18
COCCc1nc(-c2ccc3[nH]nnc3c2)n([C@H]2CCS(=O)(=O)C2)n1,-6,0.71
COc1nc(N2[C@@H]3CC[C@H]2C[C@@H](OC)C3)ncc1F,23,-4.8
CC(C)CC(=O)NCc1nnc(C(=O)Nc2cccc(F)c2)s1,14,-1.65
Cc1n[nH]c(C)c1-c1cnc2nnc(C)n2c1,-6,1.12
Cc1nc([C@H](C)NC(=O)CCCn2cccn2)n[nH]1,-11,1.53
COC1(CNc2cccc(C)n2)CCOCC1,9,-1.69
COc1cccc(NC(=O)Cn2nc3n(c2=O)CCN(Cc2ccccc2F)C3=O)c1,-11,1.26
COCCC1(CNS(=O)(=O)CCN2CCOC2=O)CCCC1,-4,0.72
